Source: the supplement of paper PMC12217912
Some of the results follow. The full chains were built here from the parent and the listed change. Inactive controls read about 0.05.

B1: TEV protease; numbered along this chain (parent)
chain: MGESLFKGPRDYNPISSSICHLTNESDGHTTSLYGIGFGPFIITNKHLFRRNNGTLVVQSLHGVFKVKDTTTLQQHLVDGRDMIIIRMPKDFPPFPQKLKFREPQREERICLVTTNFQTKSMSSMVSDTSCTFPSGDGIFWKHWIQTKDGQCGSPLVSTRDGFIVGIHSASNFTNTNNYFTSVPKNFMELLTNQEAQQWVSGWRLNADSVLWGGHKVFMVKPEEPFQPVKEATQL

Variants of: B1
Assay: raw area under fraction-flipped curve 0-4 h after induction (AUC4h, not background-subtracted), DNA-recorder readout of cleavage of the substrate (dimensionless); higher = more cleavage of the substrate by the protease variant
Conditions: temperature: 34 °C; time window: 0-4 h after rhamnose induction
Description: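 In vivo DNA recorder in E. coli TOP10(DE3) ΔrhaA at 34 °C. Each TEVp single-site mutant (parent TEVp 0) is paired with a single-site variant of the 7-mer TEVs (canonical ENLYFQ|S). The substrate sits between flexible linkers in a Bxb1-sfGFP-TEVs-SsrA fusion, so cleavage stabilises Bxb1 and speeds flipping of a recombination array, read by NGS. The value is the raw area under the fraction-flipped curve over 0-4 h after rhamnose induction (AUC4h), with ≥20 reads per time point. It is not background-subtracted; inactive controls average about 0.047.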
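Also: Bxb1 expression induced with 0.2% (w/v) L-rhamnose at OD600 near 0.5, cultures sampled hourly, flipped fraction per protease–substrate barcode pair counted by paired-end Illumina sequencing.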

MGESLFKGPRDYNPISSSICHLTNESDGHTTSLYGIGFGPFIITNKHLFRRNNGTLVVQSLHGVFKVKDTTTLQQHLVDGRDMIIIRMPKDFPPAPQKLKFREPQREERICLVTTNFQTKSMSSMVSDTSCTFPSGDGIFWKHWIQTKDGQCGSPLVSTRDGFIVGIHSASNFTNTNNYFTSVPKNFMELLTNQEAQQWVSGWRLNADSVLWGGHKVFMVKPEEPFQPVKEATQL [F95A]
area with substrate ENLAFQS: 0.0476 | area with substrate ENLCFQS: 0.0691 | area with substrate ENLDFQS: 0.05 | area with substrate ENLEFQS: 0.0586 | area with substrate ENLFFQS: 0.084 | area with substrate ENLKFQS: 0.0746 | area with substrate ENLLFQS: 0.0487 | area with substrate ENLNFQS: 0.131 | area with substrate ENLQFQS: 0.0511 | area with substrate ENLRFQS: 0.0824 | area with substrate ENLSFQS: 0.0482 | area with substrate ENLVFQS: 0.055 | area with substrate ENLWFQS: 0.0947

MGESLFKGPRDYNPISSSICHLTNESDGHTTSLYGIGFGPFIITNKHLFRRNNGTLVVQSLHGVFKVKDTTTLQQHLVDGRDMIIIRMPVDFPPFPQKLKFREPQREERICLVTTNFQTKSMSSMVSDTSCTFPSGDGIFWKHWIQTKDGQCGSPLVSTRDGFIVGIHSASNFTNTNNYFTSVPKNFMELLTNQEAQQWVSGWRLNADSVLWGGHKVFMVKPEEPFQPVKEATQL [K90V]
area with substrate ENLAFQS: 0.07 | area with substrate ENLCFQS: 0.0921 | area with substrate ENLDFQS: 0.0549 | area with substrate ENLHFQS: 0.0431 | area with substrate ENLIFQS: 0.0928 | area with substrate ENLKFQS: 0.075 | area with substrate ENLLFQS: 0.0847 | area with substrate ENLMFQS: 0.0823 | area with substrate ENLNFQS: 0.0723 | area with substrate ENLPFQS: 0.0703 | area with substrate ENLRFQS: 0.0692 | area with substrate ENLSFQS: 0.0598 | area with substrate ENLVFQS: 0.0854

MGESLFKGPRDYNPISSSICHLTNESDGHTTSLYGIGFGPFIITNKHLFRRNNGTLVVQSLHGVFKVKDTTTLQQHLVDGRDMIIIRMPHDFPPFPQKLKFREPQREERICLVTTNFQTKSMSSMVSDTSCTFPSGDGIFWKHWIQTKDGQCGSPLVSTRDGFIVGIHSASNFTNTNNYFTSVPKNFMELLTNQEAQQWVSGWRLNADSVLWGGHKVFMVKPEEPFQPVKEATQL [K90H]
area with substrate ENLAFQS: 0.0774 | area with substrate ENLCFQS: 0.0855 | area with substrate ENLDFQS: 0.0614 | area with substrate ENLEFQS: 0.0546 | area with substrate ENLFFQS: 0.0823 | area with substrate ENLGFQS: 0.0781 | area with substrate ENLIFQS: 0.0906 | area with substrate ENLKFQS: 0.0734 | area with substrate ENLLFQS: 0.0758 | area with substrate ENLNFQS: 0.0838 | area with substrate ENLPFQS: 0.0719 | area with substrate ENLQFQS: 0.0762 | area with substrate ENLRFQS: 0.0689 | area with substrate ENLSFQS: 0.0773 | area with substrate ENLWFQS: 0.065

MGESLFKGPRDYNPISSSICHLTNESDGHTTSLYGIGFGPFIITNKHLFRRNNGTLVVQSLHGVFKVKDTTTLQQHLVDGRDMIYIRMPKDFPPFPQKLKFREPQREERICLVTTNFQTKSMSSMVSDTSCTFPSGDGIFWKHWIQTKDGQCGSPLVSTRDGFIVGIHSASNFTNTNNYFTSVPKNFMELLTNQEAQQWVSGWRLNADSVLWGGHKVFMVKPEEPFQPVKEATQL [I85Y]
area with substrate ENLAFQS: 0.0626 | area with substrate ENLCFQS: 0.0742 | area with substrate ENLDFQS: 0.0572 | area with substrate ENLEFQS: 0.0751 | area with substrate ENLFFQS: 0.062 | area with substrate ENLGFQS: 0.06 | area with substrate ENLHFQS: 0.0634 | area with substrate ENLIFQS: 0.06 | area with substrate ENLKFQS: 0.0634 | area with substrate ENLMFQS: 0.0666 | area with substrate ENLNFQS: 0.0562 | area with substrate ENLPFQS: 0.0623 | area with substrate ENLQFQS: 0.0466 | area with substrate ENLRFQS: 0.0718 | area with substrate ENLSFQS: 0.0573

MGESLFKGPRDYNPISSSICHLTNESDGHTTSLYGIGFGPFIITNKHLFRRNNGTLVVQSLHGVFKVKDTTTLQQHLVDGRDMITIRMPKDFPPFPQKLKFREPQREERICLVTTNFQTKSMSSMVSDTSCTFPSGDGIFWKHWIQTKDGQCGSPLVSTRDGFIVGIHSASNFTNTNNYFTSVPKNFMELLTNQEAQQWVSGWRLNADSVLWGGHKVFMVKPEEPFQPVKEATQL [I85T]
area with substrate ENLAFQS: 0.0572 | area with substrate ENLCFQS: 0.0692 | area with substrate ENLDFQS: 0.038 | area with substrate ENLFFQS: 0.0708 | area with substrate ENLGFQS: 0.0543 | area with substrate ENLLFQS: 0.0492 | area with substrate ENLNFQS: 0.0334 | area with substrate ENLPFQS: 0.0423 | area with substrate ENLQFQS: 0.0675 | area with substrate ENLSFQS: 0.0485 | area with substrate ENLVFQS: 0.0436 | area with substrate ENLWFQS: 0.0368

MGESLFKGPRDYNPISSSICHLTNESDGHTTSLYGIGFGPFIITNKHLFRRNNGTLVVQSLHGVFKVKDTTTLQQHLVDGRLMIIIRMPKDFPPFPQKLKFREPQREERICLVTTNFQTKSMSSMVSDTSCTFPSGDGIFWKHWIQTKDGQCGSPLVSTRDGFIVGIHSASNFTNTNNYFTSVPKNFMELLTNQEAQQWVSGWRLNADSVLWGGHKVFMVKPEEPFQPVKEATQL [D82L]
area with substrate ENLAFQS: 0.048 | area with substrate ENLCFQS: 0.02 | area with substrate ENLDFQS: 0.0474 | area with substrate ENLEFQS: 0.0577 | area with substrate ENLFFQS: 0.0612 | area with substrate ENLHFQS: 0.0553 | area with substrate ENLKFQS: 0.0812 | area with substrate ENLLFQS: 0.0453 | area with substrate ENLNFQS: 0.0601 | area with substrate ENLQFQS: 0.0574 | area with substrate ENLSFQS: 0.0493 | area with substrate ENLVFQS: 0.054

MGESLFKGPRDYNPISSSICHLTNESDGHTTSLYGIGFGPFIITNKHLFRRNNGTLVVQSLHGVFKVKDTTTLQQHLVDGRDMIIIHMPKDFPPFPQKLKFREPQREERICLVTTNFQTKSMSSMVSDTSCTFPSGDGIFWKHWIQTKDGQCGSPLVSTRDGFIVGIHSASNFTNTNNYFTSVPKNFMELLTNQEAQQWVSGWRLNADSVLWGGHKVFMVKPEEPFQPVKEATQL [R87H]
area with substrate ENLAFQS: 0.0493 | area with substrate ENLCFQS: 0.0473 | area with substrate ENLDFQS: 0.0782 | area with substrate ENLEFQS: 0.053 | area with substrate ENLFFQS: 0.0818 | area with substrate ENLKFQS: 0.0438 | area with substrate ENLMFQS: 0.101 | area with substrate ENLNFQS: 0.0655 | area with substrate ENLPFQS: 0.0517 | area with substrate ENLQFQS: 0.034 | area with substrate ENLSFQS: 0.0782 | area with substrate ENLTFQS: 0.0642

MGESLFKGPRDYNPISSSICHLTNESDGHTTSLYGIGFGPFIITNKHLFRRNNGTLVVQSLHGVFKVKDRTTLQQHLVDGRDMIIIRMPKDFPPFPQKLKFREPQREERICLVTTNFQTKSMSSMVSDTSCTFPSGDGIFWKHWIQTKDGQCGSPLVSTRDGFIVGIHSASNFTNTNNYFTSVPKNFMELLTNQEAQQWVSGWRLNADSVLWGGHKVFMVKPEEPFQPVKEATQL [T70R]
area with substrate ENLAFQS: 0.0693 | area with substrate ENLDFQS: 0.0653 | area with substrate ENLKFQS: 0.0591 | area with substrate ENLNFQS: 0.0625 | area with substrate ENLPFQS: 0.0537 | area with substrate ENLRFQS: 0.0563 | area with substrate ENLSFQS: 0.0681 | area with substrate ENLVFQS: 0.0589 | area with substrate ENLWFQS: 0.0658

MGESLFKGPRDYNPISSSICHLTNESDGHTTSLYGIGFGPFIITNKHLFRRNNGTLVVQSLHGVFKVKDTTTLQQHLVDGRDMIIIRMPKDFPTFPQKLKFREPQREERICLVTTNFQTKSMSSMVSDTSCTFPSGDGIFWKHWIQTKDGQCGSPLVSTRDGFIVGIHSASNFTNTNNYFTSVPKNFMELLTNQEAQQWVSGWRLNADSVLWGGHKVFMVKPEEPFQPVKEATQL [P94T]
area with substrate ENLAFQS: 0.0526 | area with substrate ENLCFQS: 0.0547 | area with substrate ENLDFQS: 0.0636 | area with substrate ENLEFQS: 0.0642 | area with substrate ENLFFQS: 0.0871 | area with substrate ENLGFQS: 0.0584 | area with substrate ENLHFQS: 0.06 | area with substrate ENLNFQS: 0.0676 | area with substrate ENLQFQS: 0.0854 | area with substrate ENLRFQS: 0.0732
